Assay results published in article PMC4336329 (PLoS ONE, 2015).
Screen size: about 310,000 compounds; about 14,000 (4.5%) showed an effect of 50% or more. Effects have a minus sign here. The list shows a part of the results.

Molecular target: human ether-à-go-go-related gene (hERG) potassium channel (human, UniProt Q12809)
Assay: primary screen, population patch clamp on CHO cells stably expressing hERG
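Further: peak tail current of the secondary pulse compared with the same well before compound.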

Sequence of human ether-à-go-go-related gene (hERG) potassium channel (Q12809 whole entry, looked up): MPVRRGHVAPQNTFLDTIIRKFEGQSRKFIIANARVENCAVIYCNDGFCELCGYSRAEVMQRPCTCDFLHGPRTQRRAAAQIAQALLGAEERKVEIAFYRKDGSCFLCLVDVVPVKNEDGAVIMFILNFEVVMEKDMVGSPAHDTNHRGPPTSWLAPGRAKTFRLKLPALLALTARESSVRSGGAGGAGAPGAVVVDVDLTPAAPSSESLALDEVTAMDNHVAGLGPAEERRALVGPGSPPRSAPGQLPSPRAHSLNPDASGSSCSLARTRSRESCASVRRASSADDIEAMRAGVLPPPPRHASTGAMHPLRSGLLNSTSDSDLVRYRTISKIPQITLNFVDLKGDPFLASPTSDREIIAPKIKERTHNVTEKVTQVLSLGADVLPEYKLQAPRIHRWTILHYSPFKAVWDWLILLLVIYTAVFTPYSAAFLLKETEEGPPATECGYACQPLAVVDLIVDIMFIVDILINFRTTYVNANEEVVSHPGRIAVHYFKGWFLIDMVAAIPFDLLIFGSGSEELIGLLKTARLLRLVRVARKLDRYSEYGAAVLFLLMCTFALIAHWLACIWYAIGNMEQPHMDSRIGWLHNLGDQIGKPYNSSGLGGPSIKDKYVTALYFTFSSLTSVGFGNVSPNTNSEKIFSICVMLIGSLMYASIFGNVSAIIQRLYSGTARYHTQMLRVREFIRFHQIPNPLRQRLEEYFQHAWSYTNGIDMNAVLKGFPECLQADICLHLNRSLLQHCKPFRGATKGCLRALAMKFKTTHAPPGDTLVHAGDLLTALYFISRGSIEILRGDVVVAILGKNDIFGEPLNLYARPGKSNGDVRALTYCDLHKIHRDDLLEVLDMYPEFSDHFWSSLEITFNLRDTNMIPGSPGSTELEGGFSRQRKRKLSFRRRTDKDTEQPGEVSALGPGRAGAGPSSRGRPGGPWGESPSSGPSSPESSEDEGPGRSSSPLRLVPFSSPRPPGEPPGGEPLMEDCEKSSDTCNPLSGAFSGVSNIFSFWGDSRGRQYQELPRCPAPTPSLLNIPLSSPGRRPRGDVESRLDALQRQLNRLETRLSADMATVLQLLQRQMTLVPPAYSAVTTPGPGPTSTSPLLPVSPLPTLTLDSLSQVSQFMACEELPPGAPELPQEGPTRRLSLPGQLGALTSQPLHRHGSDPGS

| SMILES | hERG current change (%, negative = inhibition) at 10uM [%] |
| --- | --- |
| COc1ccc(N2CCN(C(=O)c3c(-c4c(F)cccc4Cl)noc3C)CC2)cc1 | 6.53 |
| COc1ccc(C(=O)Nc2ccc3c(c2)C(=O)c2ccccc2C3=O)cc1OC | 9.3 |
| CC(NC(=O)c1cc2c(s1)CS(=O)(=O)C2)c1ccccc1 (centres unmarked) | 10.3 |
| CN/C(=C/[N+](=O)[O-])NCCSCc1ccc(CN(C)C)o1.Cl | 8.84 |
| Cc1ccc(NC2c3ncccc3C(=O)N2C2CCCCC2)cc1 (centres unmarked) | 5.93 |
| CN(C)S(=O)(=O)c1cccc(NC(=O)COC(=O)c2cn(-c3ccccc3)nc2-c2ccccc2)c1 | 12.3 |
| CN(C)S(=O)(=O)c1ccc(C(=O)Nc2nc3ccccc3[nH]2)cc1 | 31.3 |
| COCCNC(=O)[C@@H]1CSC2c3ccccc3C(=O)N21 (some centres unmarked) | 16.7 |
| C[C@H](NC(=O)c1ccccc1)C(=O)N1CCC2(CC1)NCCc1[nH]cnc12 | 11.8 |
| C=CCOc1c(Br)cc(CNc2ccc3[nH]c(=O)[nH]c3c2)cc1OCC | 19.7 |
| CN(C)S(=O)(=O)c1ccc(NC(=O)Cc2ccc(S(=O)(=O)N3CCOCC3)s2)cc1 | 8.24 |
| COC(=O)C[C@H]1c2ccccc2S(=O)(=O)N1c1cccc(OC)c1 | -5.21 |
| CCn1ncc(CNC(=O)c2cccc([N+](=O)[O-])c2)c1C | -1.92 |
| Cn1c(SCC(=O)N2CCOCC2)nc2sc3c(c2c1=O)CCCC3 | -19.9 |
| CN(C)c1nc(SCC#N)nc(N2CCOCC2)n1 | 8.99 |
| CC1CN(CCc2ccccc2)c2nc3c(c(=O)[nH]c(=O)n3C)n2C1 (centres unmarked) | -35.9 |
| CCCN1CCc2c(sc(NC(=O)c3ccc(S(=O)(=O)N4CCCC4)cc3)c2C(N)=O)C1 | -0.925 |
| CCC(=O)Nc1sccc1C(=O)OC | 3.77 |
| CN(Cc1ccc(F)cc1)C(=O)CNC(=O)C1CCCCC1 | 17.8 |
| O=C(COC(=O)COc1ccccc1)Nc1ccc(OC(F)(F)F)cc1 | 14.8 |
| CCC(=O)NC(c1ccc(N(C)C)cc1)c1c(O)ccc2ccccc12 (centres unmarked) | 17.5 |
| CC/C(=N\Nc1ccnc2cc(Cl)ccc12)c1ccc(O)cc1 | 18.9 |

| SMILES | hERG current change (%, negative = inhibition) at 10uM [%] |
| --- | --- |
| CC(Sc1nnc(-c2ccccc2Br)o1)C(=O)N1CCOCC1 (centres unmarked) | -4.48 |
| Cc1cc(-c2ccccc2)nc(N(C)NC(=O)C(C)(C)C)c1S(C)(=O)=O | 11.4 |
| CC1CN(C(=S)SCCN2C(=O)CCC2=O)CC(C)O1 (centres unmarked) | 12.1 |
| CCOC(=O)c1cn2nc(Oc3ccc(C#N)cc3)ccc2n1 | -54.1 |
| Cc1cc(NC(=O)Nc2ccccc2)n(C(C)(C)C)n1 | 24.2 |
| O=C(O)c1nsc(Cl)c1Cl | 10.1 |
| COc1ccc2c(c1)O[C@H]1c3ccc(O)cc3OC[C@@H]21 | -4.68 |
| CCOC(=O)c1c(NC(C)=O)sc2c(OCC(O)CNC(C)(C)C)c(Br)ccc12 (centres unmarked) | -11.8 |
| O=C(CSc1nnc(NC(=O)C2CC2)s1)Nc1ccccc1C(F)(F)F | 9.73 |
| Cc1ccccc1CNC(=O)C1CCCN(c2cnccn2)C1 (centres unmarked) | 6.12 |
| O=c1[nH]c(SCc2n[nH]c(=S)n2-c2ccccc2)nc2sc3c(c12)CCC3 | 25.1 |
| CCOC(=O)Cc1csc(NC(=O)c2ccc(OC)c(OC)c2)n1.Cl | -16.4 |
| NC(=O)c1nsc(C(=O)N(CCCN2CCOCC2)C(C(=O)NC2CCCCC2)c2ccc(Cl)cc2)c1N (centres unmarked) | -42.8 |
| O=C(O)c1ccccc1NCc1ccncc1 | 7.7 |
| S=C(Nc1cccc2ccccc12)NC1CCCCC1 | -1.99 |
| CCCOc1cccc(-c2cc(-c3n[nH]c(=S)n3CC)c3ccccc3n2)c1 | 6.72 |
| CC(=O)NC1CC2CCCC(C1)N2Cc1ccc(C)cc1 (centres unmarked) | -30.5 |
| Cl.O=C1c2ccccc2C(=O)N1CC#CCN1CCN(C2CCCCC2)CC1 | -40.8 |
| COc1ccc(CC(=O)Nc2ccc(C(C)=O)cc2)cc1 | 30.8 |
| CC(=O)c1cc(CN2C(=O)CCC2=O)cs1 | 5.27 |
| CC(C)N1CCc2c(sc(NC(=O)c3ccc(S(=O)(=O)N4CCOCC4)cc3)c2C#N)C1 | 4.2 |
| CCNC(=S)NNC(=O)CSc1nc2ccccc2n1C | 5.25 |
